These are yes or no findings as the source states them, for the method shown. For part of these data: Binding seen in cells or lysates may run through a third protein. Some entries that bind do so weakly or less than the wild type. For part of these data: Sequences can lack the tags named with a protein.
Tests used:
[1] = biological target: KIR2DL5 (KIR2DL5A*001) expressed on 3T3 cells (human) (UniProt Q8N109); assay: flow cytometry on cells; PVR-Ig, CD112-Ig or hIgG incubated with transduced 3T3 cells on ice for 45 min; detected with APC- or PE-conjugated anti-human IgG Fc; only the binder purified
[2] = biological target: T1, PVR expressed on 3T3 cells (human) (UniProt P15151); assay: flow cytometry on cells; PVR receptor competition: PVR-YFP/3T3 preincubated with DNAM-1-His, TIGIT-His, CD96-His (or TMIGD2-His control) at indicated concentrations at RT 40 min, then KIR2DL5-Ig 20 ug/mL on ice 45 min; PE anti-human IgG Fc; only the binder purified
T1 sequence: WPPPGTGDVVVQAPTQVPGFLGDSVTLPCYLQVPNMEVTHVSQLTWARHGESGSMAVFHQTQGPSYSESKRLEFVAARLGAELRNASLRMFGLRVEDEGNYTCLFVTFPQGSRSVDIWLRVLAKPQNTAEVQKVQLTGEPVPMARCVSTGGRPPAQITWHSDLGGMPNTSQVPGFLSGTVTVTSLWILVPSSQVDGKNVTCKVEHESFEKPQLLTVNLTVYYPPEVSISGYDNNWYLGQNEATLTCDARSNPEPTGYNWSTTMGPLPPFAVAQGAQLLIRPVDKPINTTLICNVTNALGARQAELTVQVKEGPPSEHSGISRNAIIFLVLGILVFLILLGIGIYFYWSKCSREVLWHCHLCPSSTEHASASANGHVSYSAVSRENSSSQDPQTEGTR

By UniProt entry, the sequences of proteins in these tests, tags left out. Where a name states a change or a piece, a line headed by the entry shows the natural chain unless it says otherwise. Chains listed by the source or under a name are the forms on record and can include a tag or linker. Residues count along the entry.
UniProt Q8N109: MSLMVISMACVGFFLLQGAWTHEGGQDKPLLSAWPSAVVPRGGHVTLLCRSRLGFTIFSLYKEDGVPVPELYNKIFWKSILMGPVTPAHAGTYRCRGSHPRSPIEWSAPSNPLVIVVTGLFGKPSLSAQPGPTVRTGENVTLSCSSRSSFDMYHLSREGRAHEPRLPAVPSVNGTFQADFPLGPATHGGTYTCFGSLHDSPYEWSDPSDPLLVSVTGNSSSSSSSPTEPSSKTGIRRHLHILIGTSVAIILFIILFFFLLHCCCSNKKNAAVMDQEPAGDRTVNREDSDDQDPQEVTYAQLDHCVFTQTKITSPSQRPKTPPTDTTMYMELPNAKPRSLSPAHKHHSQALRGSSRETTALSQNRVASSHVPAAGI
KIR2DL5 (KIR2DL5A*001) expressed on 3T3 cells: residues 22-375 of Q8N109
KIR2DL5 Y328F (ITSM tyrosine mutant) transduced into primary NK cells (Q8N109, form named): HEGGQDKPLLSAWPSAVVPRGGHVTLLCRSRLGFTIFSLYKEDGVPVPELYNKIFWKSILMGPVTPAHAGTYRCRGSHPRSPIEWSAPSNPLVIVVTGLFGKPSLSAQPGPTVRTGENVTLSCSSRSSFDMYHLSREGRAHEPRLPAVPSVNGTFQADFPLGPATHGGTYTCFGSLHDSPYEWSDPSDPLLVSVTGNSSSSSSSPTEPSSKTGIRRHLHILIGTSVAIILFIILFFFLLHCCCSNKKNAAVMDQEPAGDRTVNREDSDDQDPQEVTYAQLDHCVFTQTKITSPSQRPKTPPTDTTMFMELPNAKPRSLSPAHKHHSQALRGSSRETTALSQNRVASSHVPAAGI
KIR2DL5 Y298F (ITIM tyrosine mutant) transduced into primary NK cells (Q8N109, form named): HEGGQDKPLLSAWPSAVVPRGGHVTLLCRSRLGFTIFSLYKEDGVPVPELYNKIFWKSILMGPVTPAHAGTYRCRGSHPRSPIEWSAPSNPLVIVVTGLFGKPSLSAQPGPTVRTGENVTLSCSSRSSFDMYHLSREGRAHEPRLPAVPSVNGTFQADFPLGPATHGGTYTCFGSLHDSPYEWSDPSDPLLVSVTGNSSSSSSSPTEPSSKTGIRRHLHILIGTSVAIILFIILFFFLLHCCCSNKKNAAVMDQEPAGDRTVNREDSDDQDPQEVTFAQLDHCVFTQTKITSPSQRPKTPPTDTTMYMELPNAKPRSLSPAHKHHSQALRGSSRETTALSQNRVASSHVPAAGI
KIR2DL5 D0 domain variant R52H expressed on 3T3 cells (Q8N109, form named): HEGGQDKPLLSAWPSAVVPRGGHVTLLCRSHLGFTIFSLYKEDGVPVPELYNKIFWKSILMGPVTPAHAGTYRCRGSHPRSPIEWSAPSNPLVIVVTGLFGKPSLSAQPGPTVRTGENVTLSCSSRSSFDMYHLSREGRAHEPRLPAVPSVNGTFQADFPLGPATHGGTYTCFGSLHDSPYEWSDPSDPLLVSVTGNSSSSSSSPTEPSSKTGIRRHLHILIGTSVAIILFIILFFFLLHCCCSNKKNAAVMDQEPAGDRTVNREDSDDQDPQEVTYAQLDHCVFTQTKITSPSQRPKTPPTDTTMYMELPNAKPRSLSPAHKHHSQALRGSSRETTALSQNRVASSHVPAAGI
KIR2DL5 D0 domain variant G97S expressed on 3T3 cells (Q8N109, form named): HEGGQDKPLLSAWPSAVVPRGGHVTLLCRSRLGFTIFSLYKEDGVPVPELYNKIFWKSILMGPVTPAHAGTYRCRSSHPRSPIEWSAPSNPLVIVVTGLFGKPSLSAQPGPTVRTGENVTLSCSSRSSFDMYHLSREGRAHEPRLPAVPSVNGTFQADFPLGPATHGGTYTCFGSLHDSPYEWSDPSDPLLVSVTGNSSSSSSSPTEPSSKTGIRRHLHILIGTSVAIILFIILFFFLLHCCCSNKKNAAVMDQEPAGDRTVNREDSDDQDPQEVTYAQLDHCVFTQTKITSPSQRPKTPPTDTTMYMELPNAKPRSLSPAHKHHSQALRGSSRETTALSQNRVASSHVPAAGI
KIR2DL5 D0 domain variant T46S expressed on 3T3 cells (Q8N109, form named): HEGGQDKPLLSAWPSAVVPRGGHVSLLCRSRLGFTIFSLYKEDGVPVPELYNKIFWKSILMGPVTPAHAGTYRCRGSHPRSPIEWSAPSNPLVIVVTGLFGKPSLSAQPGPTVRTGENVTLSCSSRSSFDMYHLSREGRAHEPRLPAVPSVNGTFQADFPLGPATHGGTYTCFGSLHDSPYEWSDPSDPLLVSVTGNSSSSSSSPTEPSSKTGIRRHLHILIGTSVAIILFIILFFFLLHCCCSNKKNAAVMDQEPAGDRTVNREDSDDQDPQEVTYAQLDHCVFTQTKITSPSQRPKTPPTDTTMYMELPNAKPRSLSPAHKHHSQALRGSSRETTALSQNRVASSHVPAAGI
KIR2DL5A*005 expressed on 3T3 cells (Q8N109, form named): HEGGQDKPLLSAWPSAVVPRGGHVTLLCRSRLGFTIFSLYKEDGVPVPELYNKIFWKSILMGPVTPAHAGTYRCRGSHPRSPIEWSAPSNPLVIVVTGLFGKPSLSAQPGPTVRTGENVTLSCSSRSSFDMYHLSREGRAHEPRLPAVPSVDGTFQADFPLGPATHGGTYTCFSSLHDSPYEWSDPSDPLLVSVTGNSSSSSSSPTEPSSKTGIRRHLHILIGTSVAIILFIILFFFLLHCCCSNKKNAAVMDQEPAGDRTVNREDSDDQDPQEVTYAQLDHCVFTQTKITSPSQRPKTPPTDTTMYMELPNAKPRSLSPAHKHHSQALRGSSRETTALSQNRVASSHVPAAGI
KIR2DL5 D0 domain variant P112S expressed on 3T3 cells (Q8N109, form named): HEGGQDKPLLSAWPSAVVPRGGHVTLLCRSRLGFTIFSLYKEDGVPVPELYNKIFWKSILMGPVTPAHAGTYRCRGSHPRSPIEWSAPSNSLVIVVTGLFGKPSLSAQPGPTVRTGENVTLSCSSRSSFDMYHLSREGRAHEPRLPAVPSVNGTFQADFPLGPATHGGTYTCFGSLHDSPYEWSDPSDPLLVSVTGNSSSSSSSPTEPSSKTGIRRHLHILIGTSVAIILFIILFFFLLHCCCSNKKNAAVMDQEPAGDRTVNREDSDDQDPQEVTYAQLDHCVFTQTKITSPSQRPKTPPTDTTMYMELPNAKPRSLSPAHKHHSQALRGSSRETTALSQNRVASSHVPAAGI
UniProt Q99706, residues 22-377: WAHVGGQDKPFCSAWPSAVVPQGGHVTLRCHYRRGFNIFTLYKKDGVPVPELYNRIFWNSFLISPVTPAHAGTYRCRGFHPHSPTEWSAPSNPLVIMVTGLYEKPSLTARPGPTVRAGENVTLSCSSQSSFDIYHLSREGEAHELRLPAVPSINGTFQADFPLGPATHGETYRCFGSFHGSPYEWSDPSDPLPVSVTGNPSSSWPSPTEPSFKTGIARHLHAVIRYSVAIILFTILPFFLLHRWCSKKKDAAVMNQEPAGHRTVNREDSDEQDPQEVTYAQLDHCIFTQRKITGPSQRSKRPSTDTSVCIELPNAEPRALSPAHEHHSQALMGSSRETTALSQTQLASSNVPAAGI
UniProt Q8N743, residues 26-410: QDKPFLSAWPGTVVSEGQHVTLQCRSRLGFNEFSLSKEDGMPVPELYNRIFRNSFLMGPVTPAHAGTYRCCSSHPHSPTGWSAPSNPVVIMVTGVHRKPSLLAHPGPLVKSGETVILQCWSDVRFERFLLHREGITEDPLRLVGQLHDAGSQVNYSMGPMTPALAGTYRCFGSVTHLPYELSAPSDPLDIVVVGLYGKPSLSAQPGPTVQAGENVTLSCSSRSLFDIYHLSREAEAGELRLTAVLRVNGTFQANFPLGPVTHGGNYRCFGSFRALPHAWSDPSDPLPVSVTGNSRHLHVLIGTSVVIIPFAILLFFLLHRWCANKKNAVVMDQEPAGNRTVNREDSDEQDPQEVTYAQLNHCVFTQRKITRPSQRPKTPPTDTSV
UniProt Q92692, residues 32-360: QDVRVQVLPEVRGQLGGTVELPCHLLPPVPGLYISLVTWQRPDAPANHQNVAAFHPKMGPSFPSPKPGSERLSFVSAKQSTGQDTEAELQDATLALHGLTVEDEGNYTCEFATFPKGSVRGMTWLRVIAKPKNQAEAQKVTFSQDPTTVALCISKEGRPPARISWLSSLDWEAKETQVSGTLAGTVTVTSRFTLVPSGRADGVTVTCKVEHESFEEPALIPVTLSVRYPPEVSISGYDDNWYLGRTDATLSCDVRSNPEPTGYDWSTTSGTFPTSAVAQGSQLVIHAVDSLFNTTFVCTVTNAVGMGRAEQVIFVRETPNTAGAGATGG
UniProt P29350: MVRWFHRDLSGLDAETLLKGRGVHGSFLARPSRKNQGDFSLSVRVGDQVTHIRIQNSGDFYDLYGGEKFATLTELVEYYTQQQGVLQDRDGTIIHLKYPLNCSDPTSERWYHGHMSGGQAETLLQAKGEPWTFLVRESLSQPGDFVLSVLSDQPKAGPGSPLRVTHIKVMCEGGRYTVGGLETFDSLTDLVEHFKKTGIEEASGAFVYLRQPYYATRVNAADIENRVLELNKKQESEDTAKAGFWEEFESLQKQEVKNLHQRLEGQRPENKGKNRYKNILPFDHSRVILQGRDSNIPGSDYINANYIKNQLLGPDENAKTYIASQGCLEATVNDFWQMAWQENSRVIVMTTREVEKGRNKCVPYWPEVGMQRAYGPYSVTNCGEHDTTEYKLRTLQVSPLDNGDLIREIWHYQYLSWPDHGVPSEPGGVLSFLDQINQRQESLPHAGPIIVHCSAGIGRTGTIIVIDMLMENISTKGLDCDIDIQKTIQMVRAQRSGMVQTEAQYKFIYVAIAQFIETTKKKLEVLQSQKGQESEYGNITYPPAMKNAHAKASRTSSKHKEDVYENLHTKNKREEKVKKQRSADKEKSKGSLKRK

[3] = biological target: KIR2DL5 Y328F (ITSM tyrosine mutant) transduced into primary NK cells (human) (UniProt Q8N109); assay: co-IP; primary NK cells transduced with WT or mutant KIR2DL5, treated with 1 mM pervanadate for 5 min; lysates immunoprecipitated with anti-KIR2DL5 antibodies and protein G Dynabeads; immunoblots for SHP-1 and SHP-2
[4] = biological target: WT KIR2DL5 (KIR2DL5A*001) transduced into primary NK cells (human) (UniProt Q8N109); assay: as above
[5] = biological target: KIR2DL5 Y298F (ITIM tyrosine mutant) transduced into primary NK cells (human) (UniProt Q8N109); assay: as above
[6] = biological target: KIR2DL5 (KIR2DL5A*001) expressed on 3T3 cells (human) (UniProt Q8N109); assay: flow cytometry on cells; reverse direction: PVR-Ig (20 ug/mL) preincubated with indicated concentrations of His-tagged protein, then stained KIR2DL5/3T3 on ice 45 min; PE anti-human IgG Fc; only the binder purified
[7] = biological target: KIR2DL5 (KIR2DL5A*001) expressed on 3T3 cells (human) (UniProt Q8N109); assay: flow cytometry on cells; mAb blocking assay: KIR2DL5/3T3 preincubated with serial concentrations of F8B30 or mIgG1 on ice 30 min, washed, then 20 ug/mL PVR-Ig on ice 45 min; APC anti-human IgG Fc; only the binder purified
[8] = biological target: KIR2DL4 expressed on 3T3 cells (human) (UniProt Q99706); assay: flow cytometry on cells; PVR-Ig, CD112-Ig or hIgG incubated with transduced 3T3 cells on ice for 45 min; detected with APC- or PE-conjugated anti-human IgG Fc; only the binder purified
[9] = biological target: KIR2DL5 D0 domain variant R52H expressed on 3T3 cells (human) (UniProt Q8N109); assay: as above
[10] = biological target: KIR2DL5 D0 domain variant G97S expressed on 3T3 cells (human) (UniProt Q8N109); assay: as above
[11] = biological target: KIR2DL5 D0 domain variant T46S expressed on 3T3 cells (human) (UniProt Q8N109); assay: as above
[12] = biological target: KIR2DL5A*005 expressed on 3T3 cells (human) (UniProt Q8N109); assay: as above
[13] = biological target: KIR2DL5 D0 domain variant P112S expressed on 3T3 cells (human) (UniProt Q8N109); assay: as above
[14] = biological target: KIR2DL5 (KIR2DL5A*001) expressed on 3T3 cells (human) (UniProt Q8N109); assay: intercellular conjugation assay (flow cytometry); as the conjugation assay, in the presence of the indicated anti-KIR2DL5 mAbs or mIgG1 (10 ug/mL)
[15] = biological target: KIR2DL5 (KIR2DL5A*001) expressed on 3T3 cells (human) (UniProt Q8N109); assay: intercellular conjugation assay (flow cytometry); eFluor 450-labelled PVR/3T3 or HHLA2/3T3 (2 x 10^5) incubated with PKH26-labelled KIR2DL5/3T3 or KIR3DL3/3T3 (2 x 10^5) at 37 C for 45 min
[16] = biological target: KIR3DL3 expressed on 3T3 cells (human) (UniProt Q8N743); assay: as above

CD112-Ig (from UniProt Q92692 32-360) (Fc fusion)
binding [1]: no binding

KIR2DL5-Ig fusion protein (from UniProt Q8N109 22-238) (Fc fusion)
binding [2]: binds

Src homology 2–containing protein tyrosine phosphatase 1 (SHP-1) (from UniProt P29350 1-595) (enzyme)
binding [3]: binds
binding [4]: binds
binding [5]: binds

B1: PVR-Ig fusion protein (Fc fusion, UniProt P15151 21-343)
chain: WPPPGTGDVVVQAPTQVPGFLGDSVTLPCYLQVPNMEVTHVSQLTWARHGESGSMAVFHQTQGPSYSESKRLEFVAARLGAELRNASLRMFGLRVEDEGNYTCLFVTFPQGSRSVDIWLRVLAKPQNTAEVQKVQLTGEPVPMARCVSTGGRPPAQITWHSDLGGMPNTSQVPGFLSGTVTVTSLWILVPSSQVDGKNVTCKVEHESFEKPQLLTVNLTVYYPPEVSISGYDNNWYLGQNEATLTCDARSNPEPTGYNWSTTMGPLPPFAVAQGAQLLIRPVDKPINTTLICNVTNALGARQAELTVQVKEGPPSEHSGISRN
binding [6]: binds
binding [7]: binds
binding [8]: no binding
binding [9]: binds
binding [1]: binds
binding [10]: binds
binding [11]: binds
binding [12]: no binding
binding [13]: binds

B2: PVR expressed on 3T3 cells (ligand, UniProt P15151 21-417)
chain: T1 sequence
binding [14]: binds
binding [15]: binds
binding [16]: no binding

B3: HHLA2 expressed on 3T3 cells (ligand, UniProt Q9UM44 23-414)
chain: IFPLAFFIYVPMNEQIVIGRLDEDIILPSSFERGSEVVIHWKYQDSYKVHSYYKGSDHLESQDPRYANRTSLFYNEIQNGNASLFFRRVSLLDEGIYTCYVGTAIQVITNKVVLKVGVFLTPVMKYEKRNTNSFLICSVLSVYPRPIITWKMDNTPISENNMEETGSLDSFSINSPLNITGSNSSYECTIENSLLKQTWTGRWTMKDGLHKMQSEHVSLSCQPVNDYFSPNQDFKVTWSRMKSGTFSVLAYYLSSSQNTIINESRFSWNKELINQSDFSMNLMDLNLSDSGEYLCNISSDEYTLLTIHTVHVEPSQETASHNKGLWILVPSAILAAFLLIWSVKCCRAQLEARRSRHPADGAQQERCCVPPGERCPSAPDNGEENVPLSGKV
binding [16]: binds

— paper PMC9663162
